# Results published in PMC4336329 (PLoS ONE, 2015).
# Screen size: about 310,000 compounds; about 2,200 (0.71%) showed an effect of 50% or more. The effect is printed as a negative number. This is one part of the list.
# Molecular target: human ether-à-go-go-related gene (hERG) potassium channel (human, UniProt Q12809)
# Test: primary screen, population patch clamp on CHO cells stably expressing hERG
# human ether-à-go-go-related gene (hERG) potassium channel, sequence (Q12809 whole entry, looked up): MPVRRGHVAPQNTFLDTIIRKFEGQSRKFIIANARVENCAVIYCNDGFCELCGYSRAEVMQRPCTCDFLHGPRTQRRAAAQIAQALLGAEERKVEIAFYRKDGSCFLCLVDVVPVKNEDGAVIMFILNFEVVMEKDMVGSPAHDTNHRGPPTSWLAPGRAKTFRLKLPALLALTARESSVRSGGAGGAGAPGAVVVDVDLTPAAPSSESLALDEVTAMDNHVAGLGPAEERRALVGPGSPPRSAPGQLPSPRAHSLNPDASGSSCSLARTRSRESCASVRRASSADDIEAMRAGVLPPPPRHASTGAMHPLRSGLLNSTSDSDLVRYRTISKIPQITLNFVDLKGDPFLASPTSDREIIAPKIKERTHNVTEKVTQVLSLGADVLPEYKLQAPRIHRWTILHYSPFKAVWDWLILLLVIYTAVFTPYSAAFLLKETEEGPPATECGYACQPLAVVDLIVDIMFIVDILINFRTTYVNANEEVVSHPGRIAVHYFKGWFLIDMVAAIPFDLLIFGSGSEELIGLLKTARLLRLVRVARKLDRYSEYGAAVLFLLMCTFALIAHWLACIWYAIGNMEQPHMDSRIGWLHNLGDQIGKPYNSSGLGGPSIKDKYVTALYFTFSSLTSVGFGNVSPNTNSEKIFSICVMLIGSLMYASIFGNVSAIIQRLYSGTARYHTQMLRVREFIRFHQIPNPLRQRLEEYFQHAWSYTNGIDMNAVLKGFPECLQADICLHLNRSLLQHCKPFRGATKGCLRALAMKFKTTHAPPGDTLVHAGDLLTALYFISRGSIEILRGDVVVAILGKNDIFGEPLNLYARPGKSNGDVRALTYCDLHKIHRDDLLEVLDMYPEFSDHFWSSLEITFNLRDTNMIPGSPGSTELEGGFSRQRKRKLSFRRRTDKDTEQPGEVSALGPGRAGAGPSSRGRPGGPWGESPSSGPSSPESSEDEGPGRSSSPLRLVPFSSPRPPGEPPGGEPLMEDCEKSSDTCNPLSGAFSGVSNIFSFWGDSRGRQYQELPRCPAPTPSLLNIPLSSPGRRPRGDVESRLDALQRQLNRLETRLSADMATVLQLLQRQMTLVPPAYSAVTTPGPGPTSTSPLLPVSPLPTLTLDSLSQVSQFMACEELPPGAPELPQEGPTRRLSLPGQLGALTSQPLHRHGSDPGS
row,SMILES,"hERG current change (%, negative = inhibition) at 1uM [%]"
1,COc1ccccc1CCC(=O)Nc1ccc(C)cc1Cl,9.38
2,O=C(COc1cccnc1[N+](=O)[O-])c1ccc(Cl)s1,14.8
3,COC(=O)C1=C(C)N(Cc2ccco2)C(=O)N[C@@H]1c1cccc(C(F)(F)F)c1,10.6
4,CCOC(=O)C1=C(COC(=O)c2ccccc2[N+](=O)[O-])NC(=O)NC1C (stereo not drawn),13.3
5,CCC1(c2ccccc2)NC(=O)N(CC(=O)c2ccc3c(c2)OCO3)C1=O (stereo not drawn),7.49
6,CN1CCc2c(OCC(=O)N3CCCc4ccccc43)cccc2C1=O,5.91
7,C[n+]1c(-c2ccccc2)cc(-c2ccc(O)cc2)cc1-c1ccccc1.[O-][Cl+3]([O-])([O-])[O-],-13.9
8,CC1CC(C)CN(C(=O)COC(=O)c2cc(S(=O)(=O)N3CCOCC3)ccc2F)C1 (stereo not drawn),6.41
9,CCCCOC(=O)Nc1nnc(SCCOc2ccc(C)cc2)s1,9.95
10,O=C(O)CCC(=O)NNC(=O)CCC(=O)Nc1ccccc1,17.2
11,O=c1c2ccccc2nc(CSc2ncnc3nc[nH]c23)n1-c1ccccc1,16.7
12,O=C(CCCC(=O)NC1CCCCC1)Nc1ccc([N+](=O)[O-])cc1,-6.68
13,Cl.NCCc1ccn[nH]1,14
14,N=C1S/C(=C\c2ccccc2)C(=O)N1c1ccc(F)cc1,5.85
15,NC(=S)N/N=C/c1ccc(Br)o1,6.11
16,COc1ccc(N2CCN(C(=O)CCC(=O)c3cc(C)sc3C)CC2)cc1,2.6
17,COc1ccc(C(O)Cn2ccsc2=NC(C)=O)cc1 (stereo not drawn),14
18,CC1(c2ccc3ccccc3c2)NC(=O)N(CC(=O)N2CCCC(C(F)(F)F)C2)C1=O (stereo not drawn),1.14
19,O=C(Cn1cnc2ccccc2c1=O)Nc1ccc(-c2nnc3n2CCCCC3)cc1,0.623
20,CCc1nc2c(s1)CCc1onc(-c3ccc(Cl)cc3)c1-2,8.93
21,CC(C)Oc1cccc(C(=O)C2CCCN(C(=O)c3ccccn3)C2)c1 (stereo not drawn),9.99
22,COc1ccc(C2=NOC(Cn3nc(C(=O)NCC4CC4)cc3-c3ccccc3)C2)cc1 (stereo not drawn),-2.34
23,CCCCNC(=O)[C@@H]1CCCN1S(=O)(=O)c1cccc2cccnc12,9.23
24,Cc1nc2c(C)cccc2c2c1CCN2c1ccccc1F,-25.2
25,Cc1cc2c(c(=O)n1CCCn1ccnc1)C(c1ccco1)C(C#N)=C(N)O2 (stereo not drawn),1.32
26,O=C1Nc2c(Br)cc(Br)cc2C1(O)N1CCOCC1 (stereo not drawn),12.2
27,CNCCCOc1ccc(C)cc1OC.O=C(O)C(=O)O,14.4

row,SMILES,"hERG current change (%, negative = inhibition) at 1uM [%]"
1,Cc1c(C(=O)O)oc2ccc(S(=O)(=O)N3CCCC3)cc12,22.9
2,Cc1ccc(N2C(=O)CN(Cc3cccs3)C2=S)cc1C,-0.433
3,O=S(=O)(Nc1cccc(CCc2ccccn2)c1)c1cc(Cl)ccc1Cl,9.34
4,CCC(C)NC(=O)c1ccccc1NC(=O)C1COc2ccccc2O1 (stereo not drawn),9.55
5,Cc1ccc(NC(=O)COc2coc(CN3CCc4ccccc4C3)cc2=O)cc1Cl,7.76
6,O=C(Cc1n[nH]c(=O)c2ccccc12)Nc1cccc(S(=O)(=O)N2CCCC2)c1,5.91
7,Cc1cccc(C(=O)NCCNC(=O)c2cnccn2)c1,11.9
8,Cc1ccc(N2C(=O)N3[C@H]4c5ccccc5OC[C@@H]4[C@@H](c4ccccc4)[C@@]3(C)C2=O)cc1,16.3
9,C=C1C(=O)C=C2CN(C(=O)c3ccccc3)[C@@](Cc3ccc(F)cc3)(C(=O)OC)[C@@H]12,14.2
10,Cc1csc(NC(=O)CCC(=O)c2cccs2)n1,-0.468
11,COc1ccc(C2(C(=O)NCc3ccccc3Cl)CCOCC2)cc1OC,-2.52
12,COc1ccc(OC)c(S(=O)(=O)N2CCC(C(=O)NCCc3ccc(OC)c(OC)c3)CC2)c1,10.5
13,COC(=O)C1=C(C(=O)OC)[C@@H]2N(C)c3ccc(OC)cc3[C@@]23C[C@@H](C(=O)OC)N(C(=O)CC(C)C)C3=N1,7.86
14,O=C(OCc1cc2ccccc2[nH]c1=O)C1CCCCC1,5.48
15,CC(C(=O)Nc1ccc(C#N)cc1)N(C)Cc1cccs1 (stereo not drawn),-15.2
16,O=C(c1ccc(-n2cccn2)cc1)N1CCN(c2ncccc2C(F)(F)F)CC1,-16.4
17,CCN(CC)S(=O)(=O)c1cccc(NC(=O)CSc2nnc(N)s2)c1,11.4
18,CCOC(=O)C1=C(c2ccccc2)NC(=S)NC1c1ccc(Cl)cc1 (stereo not drawn),9.49
19,O=S(=O)(c1ccc(F)cc1)N1CCCC1c1cccnc1 (stereo not drawn),6.46
20,Cc1ccc(SC(C)C(=O)Nc2ccc(S(=O)(=O)N3CCOCC3)cc2)cc1 (stereo not drawn),-12.1
21,COC(=O)c1ccc(N2CCN(CCNC(=O)Nc3ccc(OC)cc3)CC2)cc1,13.4
22,COc1cc(CN2CCNC(=O)C2CC(=O)N2CCCN(C(C)=O)CC2)cc(OC)c1 (stereo not drawn),14.3
23,CCOC(=O)/C=C1\CN(Cc2cc(OC)c(OC)c(OC)c2)S(=O)(=O)c2ccc(C(F)(F)F)cc21,3.43
24,C=CCNC(=O)C1CCN(c2c([N+](=O)[O-])cc(C(F)(F)F)cc2[N+](=O)[O-])CC1,13.4
25,Cc1ccc(Nc2c(-c3ccc(N4CCOCC4)cc3)nc3ncccn23)cc1C,12.6
26,CC(=O)N(CCC(Cc1ccccc1)c1ccc2c(c1)OCO2)Cc1ccc(Cl)cc1 (stereo not drawn),6.14
27,O=[N+]([O-])c1ccccc1/C=C/C=N/n1c(-c2ccco2)n[nH]c1=S,15.5
